The list shows a part of the results.
Target: T1, MBP-FoxP1dN (Mus musculus, UniProt P58462 326-579)
T1 sequence: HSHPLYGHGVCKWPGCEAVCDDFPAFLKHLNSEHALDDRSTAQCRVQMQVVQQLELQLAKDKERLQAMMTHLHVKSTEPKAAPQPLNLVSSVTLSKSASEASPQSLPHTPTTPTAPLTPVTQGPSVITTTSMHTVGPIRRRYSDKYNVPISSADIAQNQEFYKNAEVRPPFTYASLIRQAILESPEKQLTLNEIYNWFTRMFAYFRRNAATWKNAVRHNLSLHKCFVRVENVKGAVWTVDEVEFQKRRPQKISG
Experiment: PD-seq (MBP pull-down with sequencing); 20 mM Tris-HCl pH 7.5, 100 mM NaCl, 1.5 mM MgCl2, 0.4 uM protein, 0.1 uM dsDNA library, 30 min, room temperature, amylose pull-down; high values mean tight binding
Settings: protein: recombinant; tags: His6-MBP; chain copies: 2; dsDNA, one strand shown
Outline: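 A degenerate double-stranded DNA library, filled in with Klenow, was added at 0.1 µM to 0.4 µM His6-MBP-tagged mouse FoxP3 or FoxP1 fragment lacking the N-terminus, expressed in E. coli. Incubation lasted 30 min at room temperature in Tris pH 7.5 buffer with NaCl and MgCl2, after which complexes were collected on amylose resin, washed three times, digested with proteinase K to free the DNA, barcoded by PCR and sequenced by Illumina. Binding is the pooled-replicate reads-per-million enrichment of pull-down over input.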

Sequence	binding signal
GATGATTGTTCTCCCAGCTGATGAATTAGCACGCTCGAGTAAACAAATTTTCCTAATCTTTCTGTTCAAGCGCCATCTAC	0.971 RPM ratio (pull-down/input)
GATGATTGTTCTCCCAGCTGATGAATTCAGCGGGTCGAGTAAACAAATTTTCCTAATCTTTCTGTTCAAGCGCCATCTAC	0.773 RPM ratio (pull-down/input)
GATGATTGTTCTCCCAGCTGATGAATTGTAGATGTCGAGTAAACAAATTTTCCTAATCTTTCTGTTCAAGCGCCATCTAC	0.992 RPM ratio (pull-down/input)
GATGATTGTTCTCCCAGCTGATGAATTAGCATTTTCGAGTAAACAAATTTTCCTAATCTTTCTGTTCAAGCGCCATCTAC	1.41 RPM ratio (pull-down/input)
GATGATTGTTCTCCCAGCTGATGAATTCTCTTATTCGAGTAAACAAATTTTCCTAATCTTTCTGTTCAAGCGCCATCTAC	0.995 RPM ratio (pull-down/input)
GATGATTGTTCTCCCAGCTGATGAATTCTTGCGATCGAGTAAACAAATTTTCCTAATCTTTCTGTTCAAGCGCCATCTAC	0.969 RPM ratio (pull-down/input)
GATGATTGTTCTCCCAGCTGATGAATTCCCAGCTTCGAGTAAACAAATTTTCCTAATCTTTCTGTTCAAGCGCCATCTAC	0.873 RPM ratio (pull-down/input)
GATGATTGTTCTCCCAGCTGATGAATTTGCTAGGTCGAGTAAACAAATTTTCCTAATCTTTCTGTTCAAGCGCCATCTAC	0.869 RPM ratio (pull-down/input)
GATGATTGTTCTCCCAGCTGATGAATTGTGGTTATCGAGTAAACAAATTTTCCTAATCTTTCTGTTCAAGCGCCATCTAC	1.27 RPM ratio (pull-down/input)
GATGATTGTTCTCCCAGCTGATGAATTGGCATGGTCGAGTAAACAAATTTTCCTAATCTTTCTGTTCAAGCGCCATCTAC	0.844 RPM ratio (pull-down/input)
GATGATTGTTCTCCCAGCTGATGAATTGAGCGATTCGAGTAAACAAATTTTCCTAATCTTTCTGTTCAAGCGCCATCTAC	0.894 RPM ratio (pull-down/input)
GATGATTGTTCTCCCAGCTGATGAATTCCCGAACTCGAGTAAACAAATTTTCCTAATCTTTCTGTTCAAGCGCCATCTAC	0.756 RPM ratio (pull-down/input)
GATGATTGTTCTCCCAGCTGATGAATTACCCGCGTCGAGTAAACAAATTTTCCTAATCTTTCTGTTCAAGCGCCATCTAC	0.941 RPM ratio (pull-down/input)
GATGATTGTTCTCCCAGCTGATGAATTCTTATCTTCGAGTAAACAAATTTTCCTAATCTTTCTGTTCAAGCGCCATCTAC	0.926 RPM ratio (pull-down/input)
GATGATTGTTCTCCCAGCTGATGAATTGCTGGCGTCGAGTAAACAAATTTTCCTAATCTTTCTGTTCAAGCGCCATCTAC	0.963 RPM ratio (pull-down/input)
GATGATTGTTCTCCCAGCTGATGAATTGTAAACTTCGAGTAAACAAATTTTCCTAATCTTTCTGTTCAAGCGCCATCTAC	1.57 RPM ratio (pull-down/input)
GATGATTGTTCTCCCAGCTGATGAATTGGTTTTCTCGAGTAAACAAATTTTCCTAATCTTTCTGTTCAAGCGCCATCTAC	1.13 RPM ratio (pull-down/input)
GATGATTGTTCTCCCAGCTGATGAATTTCCCCATTCGAGTAAACAAATTTTCCTAATCTTTCTGTTCAAGCGCCATCTAC	0.898 RPM ratio (pull-down/input)
GATGATTGTTCTCCCAGCTGATGAATTCGAACCTTCGAGTAAACAAATTTTCCTAATCTTTCTGTTCAAGCGCCATCTAC	0.82 RPM ratio (pull-down/input)
GATGATTGTTCTCCCAGCTGATGAATTTTCCCCATCGAGTAAACAAATTTTCCTAATCTTTCTGTTCAAGCGCCATCTAC	0.949 RPM ratio (pull-down/input)

Sequence	binding signal
GATGATTGTTCTCCCAGCTGATGAATTATCCACTTCGAGTAAACAAATTTTCCTAATCTTTCTGTTCAAGCGCCATCTAC	1.04 RPM ratio (pull-down/input)
GATGATTGTTCTCCCAGCTGATGAATTGTGAGCATCGAGTAAACAAATTTTCCTAATCTTTCTGTTCAAGCGCCATCTAC	1.22 RPM ratio (pull-down/input)
GATGATTGTTCTCCCAGCTGATGAATTAAGTAACTCGAGTAAACAAATTTTCCTAATCTTTCTGTTCAAGCGCCATCTAC	0.963 RPM ratio (pull-down/input)
GATGATTGTTCTCCCAGCTGATGAATTTTCTGATTCGAGTAAACAAATTTTCCTAATCTTTCTGTTCAAGCGCCATCTAC	0.963 RPM ratio (pull-down/input)
GATGATTGTTCTCCCAGCTGATGAATTGCTCCCCTCGAGTAAACAAATTTTCCTAATCTTTCTGTTCAAGCGCCATCTAC	0.938 RPM ratio (pull-down/input)
GATGATTGTTCTCCCAGCTGATGAATTAAACCGCTCGAGTAAACAAATTTTCCTAATCTTTCTGTTCAAGCGCCATCTAC	0.876 RPM ratio (pull-down/input)
GATGATTGTTCTCCCAGCTGATGAATTTTCAGCTTCGAGTAAACAAATTTTCCTAATCTTTCTGTTCAAGCGCCATCTAC	0.877 RPM ratio (pull-down/input)
GATGATTGTTCTCCCAGCTGATGAATTACAATATTCGAGTAAACAAATTTTCCTAATCTTTCTGTTCAAGCGCCATCTAC	1.5 RPM ratio (pull-down/input)
GATGATTGTTCTCCCAGCTGATGAATTGGCTGATTCGAGTAAACAAATTTTCCTAATCTTTCTGTTCAAGCGCCATCTAC	0.858 RPM ratio (pull-down/input)
GATGATTGTTCTCCCAGCTGATGAATTTTCCCTATCGAGTAAACAAATTTTCCTAATCTTTCTGTTCAAGCGCCATCTAC	0.937 RPM ratio (pull-down/input)
GATGATTGTTCTCCCAGCTGATGAATTGCGAGACTCGAGTAAACAAATTTTCCTAATCTTTCTGTTCAAGCGCCATCTAC	1.01 RPM ratio (pull-down/input)
GATGATTGTTCTCCCAGCTGATGAATTACTGCAATCGAGTAAACAAATTTTCCTAATCTTTCTGTTCAAGCGCCATCTAC	1.31 RPM ratio (pull-down/input)
GATGATTGTTCTCCCAGCTGATGAATTCCCAAGCTCGAGTAAACAAATTTTCCTAATCTTTCTGTTCAAGCGCCATCTAC	0.781 RPM ratio (pull-down/input)
GATGATTGTTCTCCCAGCTGATGAATTCCTACCCTCGAGTAAACAAATTTTCCTAATCTTTCTGTTCAAGCGCCATCTAC	0.781 RPM ratio (pull-down/input)
GATGATTGTTCTCCCAGCTGATGAATTATTATCGTCGAGTAAACAAATTTTCCTAATCTTTCTGTTCAAGCGCCATCTAC	1.4 RPM ratio (pull-down/input)
GATGATTGTTCTCCCAGCTGATGAATTGCTTTGTTCGAGTAAACAAATTTTCCTAATCTTTCTGTTCAAGCGCCATCTAC	1.11 RPM ratio (pull-down/input)
GATGATTGTTCTCCCAGCTGATGAATTTTCACGTTCGAGTAAACAAATTTTCCTAATCTTTCTGTTCAAGCGCCATCTAC	0.913 RPM ratio (pull-down/input)
GATGATTGTTCTCCCAGCTGATGAATTCGATCGATCGAGTAAACAAATTTTCCTAATCTTTCTGTTCAAGCGCCATCTAC	0.893 RPM ratio (pull-down/input)
GATGATTGTTCTCCCAGCTGATGAATTAGTGTGATCGAGTAAACAAATTTTCCTAATCTTTCTGTTCAAGCGCCATCTAC	1.11 RPM ratio (pull-down/input)
GATGATTGTTCTCCCAGCTGATGAATTGAGCGGGTCGAGTAAACAAATTTTCCTAATCTTTCTGTTCAAGCGCCATCTAC	0.815 RPM ratio (pull-down/input)

Source: article PMC12820563, “FoxP3 forms a head-to-head dimer in vivo and stabilizes its multimerization on adjacent microsatellites”
